# Assay results as given in PubChem BioAssay (NCI).
#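 The compound was tested at five concentrations on cells cultured in 96-well plates, with a 48-hour exposure period. GI50 is the concentration that inhibits growth by half.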 Some entries of the source have several records that differ or are many. This is not the full list of results. The source may hold further records. For some of these results: A record mostly stands for its own series of concentrations, not given here; a value can be the end of its range. Brackets tell where a record comes from. A, B and so on number the origins entry by entry. For some of these results: The records of an entry are repeated measurements in other runs, samples, wells, individuals or studies.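 TGI denotes the concentration required for complete inhibition of growth.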
# How the values were obtained:
# Assay in all cases: NCI-60 cell line screen, 48 h
# A498 renal = test system: A498 renal
# CAKI-1 renal = test system: CAKI-1 renal
# CCRF-CEM leukemia = test system: CCRF-CEM leukemia
# EKVX NSCLC = test system: EKVX NSCLC
# HCC-2998 colon = test system: HCC-2998 colon
# HCT-116 colon = test system: HCT-116 colon
# HCT-15 colon = test system: HCT-15 colon
# HL-60(TB) leukemia = test system: HL-60(TB) leukemia
# HOP-92 NSCLC = test system: HOP-92 NSCLC
# HS 578T breast = test system: HS 578T breast
# HT29 colon = test system: HT29 colon
# IGROV1 ovarian = test system: IGROV1 ovarian
# KM12 colon = test system: KM12 colon
# LOX IMVI melanoma = test system: LOX IMVI melanoma
# M14 melanoma = test system: M14 melanoma
# MALME-3M melanoma = test system: MALME-3M melanoma
# MCF7 breast = test system: MCF7 breast
# MDA-MB-231 breast = test system: MDA-MB-231 breast
# MDA-MB-435 = test system: MDA-MB-435
# MDA-N = test system: MDA-N
# MOLT-4 leukemia = test system: MOLT-4 leukemia
# NCI-H226 lung = test system: NCI-H226 lung
# NCI-H23 lung = test system: NCI-H23 lung
# NCI-H460 lung = test system: NCI-H460 lung
# NCI-H522 lung = test system: NCI-H522 lung
# OVCAR-3 ovarian = test system: OVCAR-3 ovarian
# OVCAR-5 ovarian = test system: OVCAR-5 ovarian
# RPMI-8226 leukemia = test system: RPMI-8226 leukemia
# RXF 393 renal = test system: RXF 393 renal
# SF-268 CNS = test system: SF-268 CNS
# SF-539 CNS = test system: SF-539 CNS
# SK-MEL-28 melanoma = test system: SK-MEL-28 melanoma
# SN12C renal = test system: SN12C renal
# SNB-19 CNS = test system: SNB-19 CNS
# SR leukemia = test system: SR leukemia
# U251 CNS = test system: U251 CNS
# UACC-257 melanoma = test system: UACC-257 melanoma
# UACC-62 melanoma = test system: UACC-62 melanoma
# UO-31 renal = test system: UO-31 renal
# OVCAR-4 ovarian = test system: OVCAR-4 ovarian
# COLO 205 colon = test system: COLO 205 colon
# K-562 leukemia = test system: K-562 leukemia
# SK-MEL-2 melanoma = test system: SK-MEL-2 melanoma
smiles,measurement,setting,value
COC1=C(C)C(=O)C2=C(C1=O)C(CO)N1C(C#N)C3CC4C(C1C2N1CCOC41)N3C (configuration not stated),GI50,A498 renal,3 nM [1 test] and 1.37 µM [mean of 2 tests]
same,TGI,A498 renal,"19.9 nM, 425 nM, 3.5 µM"
same,GI50,CAKI-1 renal,"0.871 nM [sample A, 1 test] and 12.2 nM [sample A, mean of 5 tests] and 29.1 nM [sample B, 1 test]"
same,TGI,CAKI-1 renal,"1.82 µM [sample A, 1 test] and 990 nM [sample A, mean of 5 tests] and 13.5 µM [sample B, 1 test]"
same,GI50,CCRF-CEM leukemia,"0.664 nM [sample A, 1 test] and 29.7 nM [sample A, mean of 4 tests] and < 10 nM [sample B, 1 test]"
same,TGI,CCRF-CEM leukemia,"6.77 nM, 150 nM [sample A, 1 test] and 294 nM [sample A, mean of 4 tests] and 126 nM [sample B, 1 test]"
same,TGI,EKVX NSCLC,"30.5 nM, 2.11 µM, 56.3 nM [sample A] and 829 nM [sample B]"
same,TGI,HCC-2998 colon,"13.8 nM, 263 nM, 159 nM [sample A] and 181 nM [sample B]"
same,GI50,HCT-116 colon,"2.36 nM [sample A, 1 test] and 48.5 nM [sample A, mean of 2 tests] and 50.1 nM [sample A, mean of 3 tests] and < 13.4 nM [sample B, mean of 2 tests]"
same,TGI,HCT-116 colon,248 nM [mean of 2 tests] and 5.06 µM [mean of 3 tests]
same,TGI,HCT-15 colon,"19.2 nM, 349 nM, 1.18 µM [sample A] and 1.94 µM [sample B]"
same,TGI,HL-60(TB) leukemia,"0.488 nM, 150 nM [sample A] and 13.7 nM [sample B]"
same,TGI,HOP-92 NSCLC,"7.92 nM, 94.1 nM [sample A] and 65.8 nM [sample B]"
same,GI50,HS 578T breast,"3.43 nM, 135 nM [sample A, 1 test] and 51.5 nM [sample B, 1 test]"
same,TGI,HS 578T breast,"35.5 nM, 491 nM [sample A, 1 test] and 525 nM [sample B, 1 test]"
same,GI50,HT29 colon,2.47 nM [1 test] and 24.6 nM [mean of 2 tests] and 27.6 nM [mean of 4 tests]
same,TGI,IGROV1 ovarian,"4.74 µM, 450 nM [sample A] and 10.7 µM [sample B]"
same,TGI,KM12 colon,"42.1 nM, 468 nM, 113 nM [sample A] and 2.4 µM [sample B]"
same,TGI,LOX IMVI melanoma,"19.6 nM, 124 nM, 89.6 nM [sample A] and 82.6 nM [sample B]"
same,GI50,M14 melanoma,"2.87 nM [sample A, 1 test] and 49.1 nM [sample A, mean of 5 tests] and < 11.2 nM [sample B, mean of 2 tests]"
same,TGI,M14 melanoma,"12.8 nM [sample A, 1 test] and 149 nM [sample A, mean of 5 tests] and < 25.2 nM [sample B, mean of 2 tests]"
same,GI50,MALME-3M melanoma,"2.42 nM, 29.3 nM [1 test] and 45.1 nM [mean of 5 tests]"
same,TGI,MALME-3M melanoma,"6.54 nM, 53.1 nM [1 test] and 144 nM [mean of 5 tests]"
same,GI50,MCF7 breast,"0.686 nM, 19.9 nM, 22.4 nM [sample A, 1 test] and < 10 nM [sample B, mean of 2 tests]"
same,TGI,MCF7 breast,"1.02 µM, 11 µM [sample A, 1 test] and 13 µM [sample B, mean of 2 tests]"
same,GI50,MDA-MB-231 breast,"2.82 nM, 54.2 nM [sample A, 1 test] and < 10 nM [sample B, 1 test]"
same,GI50,MDA-MB-435,"2.57 nM, 59.6 nM [sample A, 1 test] and 31.8 nM [sample B, 1 test]"
same,TGI,MDA-MB-435,7.2 nM and 286 nM
same,GI50,MDA-N,"3.15 nM, 55.2 nM [sample A, 1 test] and < 17.9 nM [sample B, mean of 2 tests]"
same,GI50,MOLT-4 leukemia,0.513 nM [1 test] and 11.4 nM [mean of 4 tests]
same,TGI,MOLT-4 leukemia,"3.13 nM, 68.3 nM, 185 nM"
same,GI50,NCI-H226 lung,2.04 nM [1 test] and 37.6 nM [mean of 2 tests]
same,TGI,NCI-H226 lung,"4.81 nM, 265 nM, 163 nM [sample A] and 273 nM [sample B]"
same,TGI,NCI-H23 lung,"4.28 nM, 165 nM, 35.7 nM"
same,GI50,NCI-H460 lung,6.23 nM [1 test] and 1.35 µM [mean of 2 tests]
same,TGI,NCI-H460 lung,"19 nM, 1.04 µM, 4.8 µM [sample A] and 1.09 µM [sample B]"
same,GI50,NCI-H522 lung,"0.445 nM [sample A, 1 test] and 2.54 nM [sample A, mean of 3 tests] and 20.4 nM [sample B, 1 test]"
same,TGI,NCI-H522 lung,"2.78 nM [sample A, 1 test] and 9.68 nM [sample A, mean of 3 tests] and 69.1 nM [sample B, 1 test]"
same,GI50,OVCAR-3 ovarian,"3.23 nM [sample A, 1 test] and < 15 nM [sample A, mean of 2 tests] and 24.1 nM [sample A, mean of 5 tests] and < 10 nM [sample B, mean of 2 tests]"
same,GI50,OVCAR-5 ovarian,13.3 nM and 165 nM
same,TGI,RPMI-8226 leukemia,28.1 nM [1 test] and 369 nM [mean of 3 tests]
same,TGI,RXF 393 renal,"5.01 nM, 65.3 nM, 43.2 nM [sample A] and 59.3 nM [sample B]"
same,GI50,SF-268 CNS,3.62 nM [1 test] and 40.7 nM [mean of 2 tests]
same,GI50,SF-539 CNS,"5.33 nM [sample A, 1 test] and 32.9 nM [sample A, mean of 2 tests] and 58.8 nM [sample A, mean of 5 tests] and 207 nM [sample B, 1 test]"
same,TGI,SF-539 CNS,"27.1 nM [sample A, 1 test] and 102 nM [sample A, mean of 2 tests] and 157 nM [sample A, mean of 5 tests] and 407 nM [sample B, 1 test]"
same,GI50,SK-MEL-28 melanoma,2.7 nM [1 test] and 28.5 nM [mean of 2 tests]
same,TGI,SK-MEL-28 melanoma,"14.6 nM, 260 nM, 88.9 nM [sample A] and 3.2 µM [sample B]"
same,GI50,SN12C renal,"3.66 nM [sample A, 1 test] and 25.2 nM [sample A, mean of 2 tests] and 30 nM [sample A, mean of 5 tests] and < 10 nM [sample B, mean of 2 tests]"
same,TGI,SN12C renal,"1.26 µM [sample A, mean of 2 tests] and 527 nM [sample A, mean of 5 tests] and < 27.5 nM [sample B, mean of 2 tests]"
same,GI50,SNB-19 CNS,"13.1 nM [sample A, 1 test] and 61.8 nM [sample A, mean of 2 tests] and 153 nM [sample A, mean of 5 tests] and < 20.7 nM [sample B, mean of 2 tests]"
same,TGI,SR leukemia,"4.96 nM [sample A, 1 test] and 577 nM [sample A, mean of 4 tests] and 19.9 µM [sample B, 1 test]"
same,GI50,U251 CNS,"2.15 nM, 259 nM [sample A, 1 test] and 101 nM [sample A, mean of 5 tests] and 50.1 nM [sample B, 1 test]"
same,TGI,U251 CNS,"10.3 µM [sample A, 1 test] and 4.79 µM [sample A, mean of 5 tests] and > 100 µM [sample B, 1 test]"
same,TGI,UACC-257 melanoma,"5.49 nM, 82.1 nM, 42.9 nM [sample A] and 65.5 nM [sample B]"
same,GI50,UACC-62 melanoma,"1.71 nM [sample A, 1 test] and 17 nM [sample A, mean of 2 tests] and 45.2 nM [sample A, mean of 4 tests] and 14.5 nM [sample B, 1 test]"
same,TGI,UACC-62 melanoma,"3.56 nM [sample A, 1 test] and 37.5 nM [sample A, mean of 2 tests] and 129 nM [sample A, mean of 4 tests] and 58.6 nM [sample B, 1 test]"
same,GI50,UO-31 renal,"1.87 nM [sample A, 1 test] and 27.1 nM [sample A, mean of 2 tests] and 84.7 nM [sample A, mean of 5 tests] and 27.9 nM [sample B, mean of 2 tests]"
same,TGI,UO-31 renal,"5.7 nM [sample A, 1 test] and 136 nM [sample A, mean of 2 tests] and 327 nM [sample A, mean of 5 tests] and 103 nM [sample B, mean of 2 tests]"
CC[C@@]1(O)C[C@H](OC2CC(N(C)C)C(OC3CC(O)C(OC4CCC(=O)C(C)O4)C(C)O3)C(C)O2)c2c(cc3c(c2O)C(=O)c2c(O)ccc(O)c2C3=O)[C@H]1C(=O)OC (some centres not stated),TGI,CAKI-1 renal,0.0331 nM and 10.4 µM
same,TGI,NCI-H522 lung,1.88 nM and 23 nM
same,TGI,OVCAR-4 ovarian,1.25 nM and 210 nM
S=c1nc[nH]c2nc[nH]c12,TGI,HL-60(TB) leukemia,"168 µM, 53.9 µM [sample A] and 10.7 µM [sample B]"
same,TGI,M14 melanoma,"> 734 µM, > 750 µM [sample A] and 32.7 µM [sample B]"
same,GI50,MCF7 breast,"9.2 µM [sample A, mean of 2 tests] and 371 nM [sample B, 1 test]"
CN(C)CCNC(=O)c1cccc2cc([N+](=O)[O-])ccc12,TGI,COLO 205 colon,"11.4 µM [sample A, 1 test] and 849 nM [sample B, 1 test]"
same,GI50,EKVX NSCLC,"2.76 µM [sample A, 1 test] and 198 nM [sample B, 1 test]"
same,TGI,HCT-116 colon,"12.2 µM [sample A, 1 test] and 347 nM [sample B, 1 test]"
same,TGI,K-562 leukemia,"12.1 µM [sample A, 1 test] and 320 nM [sample B, 1 test]"
same,GI50,KM12 colon,"2.01 µM [sample A, 1 test] and 189 nM [sample B, 1 test]"
same,TGI,KM12 colon,"38.9 µM [sample A, 1 test] and 1.22 µM [sample B, 1 test]"
same,TGI,LOX IMVI melanoma,"7.19 µM [sample A, 1 test] and 310 nM [sample B, 1 test]"
same,GI50,NCI-H226 lung,"1.37 µM [sample A, 1 test] and 118 nM [sample B, 1 test]"
same,TGI,NCI-H226 lung,"5.03 µM [sample A, 1 test] and 473 nM [sample B, 1 test]"
same,TGI,OVCAR-4 ovarian,"77.8 µM [sample A, 1 test] and 1.31 µM [sample B, 1 test]"
same,GI50,OVCAR-5 ovarian,"1.91 µM [sample A, 1 test] and 163 nM [sample B, 1 test]"
same,GI50,SK-MEL-2 melanoma,"1.9 µM [sample A, 1 test] and 126 nM [sample B, 1 test]"
same,TGI,SK-MEL-2 melanoma,"4.09 µM [sample A, 1 test] and 340 nM [sample B, 1 test]"
same,GI50,SR leukemia,"1.02 µM [sample A, 1 test] and 21.4 nM [sample B, 1 test]"
same,GI50,UACC-62 melanoma,"2.91 µM [sample A, 1 test] and 162 nM [sample B, 1 test]"
same,TGI,UACC-62 melanoma,"26.2 µM [sample A, 1 test] and 419 nM [sample B, 1 test]"
COc1ccc(-c2ccc3ncc4c(c3c2)n(-c2ccc(N3CCNCC3)c(C(F)(F)F)c2)c(=O)n4C)cn1,TGI,COLO 205 colon,"1.09 µM [sample A, mean of 3 tests] and 108 nM [sample B, mean of 2 tests]"
same,TGI,OVCAR-5 ovarian,"1.23 µM [sample A, mean of 3 tests] and 98.3 nM [sample B, mean of 2 tests]"
